Measured values published in the RNAGym collection of RNA variant scans (doi:10.7554/elife.90254).
The source gives no read counts; variants with many changes may rest on few reads.

B1: LINE1-full (parent)
chain: UACGUAGGUGGUUUUCCCCUGAUAGUGCUAAGGGGGCCUGGAAGUUUGGACUGGGCAGAGCUCAACACAGCGUGGCAAAGUGGCUGUGGCUAGACUGCCUCUCUGGAUUCCUCGUCACUCAGCAGGGCAUCUCUGAGAGAAAUGCC

Variants of: B1
Assay: self-cleavage, relative activity (ratio to wild type); higher = more cleavage; in vitro, sequencing; the parent is a self-cleaving ribozyme

Variant | self-cleavage
A24G A107G C118U | 0.87
A77U G88A A129G | 0.04
G27A U29C U102C U132A | 1.34
G54A A121G A141G | 0.98
A22U A78G U85C A124U | 0.06
A6U U29C A138G | 0.41
U15C G49A C111U | 0.66
G83A C128U A138G | 0.77
U52A C84U U104A | 0.05
U12C U15C G82A A140G | 1.43
U13C A77U U115C | 1.73
U20C U39C U119A | 1.25
U52C G80A G88A U91C A136G | 0.04
U13C A42G U47C A121U A129G U134C | 2.3
U1C U5C U14C U102C C111U | 0.61
C18U C28G U104C | 1.53
A77U U115A A136G A140U | 1.89
A65G U85C U132C | 0
G70U U104C A117G A124G | 0
U62C U73G A136G | 0.1
A6U G8A A140G | 0.91

Variant | self-cleavage
A57G A64U A141G | 0.2
A2G A69G U96C | 0
C3A U20A U29C U119C C128G | 1.23
U9C U13C U29A A121U | 0.98
U13C U14C A43G U85A A107G A138G A140G | 0.4
G34U A50G U52A A57G A77G U85C U104A A140G | 0
U26C U52C A69G U115A | 0
G53A C61U U96C G105A U132C | 0.02
U130C U132C A141G | 1.56
U9A A42G U73C | 1.39
U112C G139U A141G | 1.23
G21U A64G A142G | 0.11
U39A A50G A78G U85C | 0.28
U47A C68A A92C A94G A107G A142U | 0.1
A6G U108C U119C | 0.66
A43G A59G U130G U132A | 0.3
G40U A69G U81C | 1.15
C16U A129G U130A U143A | 0.9
A2U G82A A94G | 0.16
U15C U45C U52C A121G | 1.15
A31U G36A G86A U91A G122A U143C | 0.01

Variant | self-cleavage
U29C U46C U119C A142G | 2.16
U26A G33U U52A | 0.97
A50G U52A U102C U115A | 1.02
U15A A43G U102C G127U | 0.53
G36A A43G U87A U91C A121U | 0.05
G11U U39C U100C | 1.19
U26A U39C U45C U47C | 0
U20C U47C U85A U130C | 0.25
U14C G34U A138G | 1.61
U20C U47A A77G A142C | 1.89
U85C A140G C146U | 0.13
A22U C61U A79G | 0
A42G A65U A79U A92G G97A A141G A142G | 0
A64U U100C U143C | 0.56
U47C A138G U143A | 1.44
U46A G60A G83A U87A | 0.03
U52C C95U U100C | 0.48
U39A U100C A129C | 0.98
U13C U47C U73A U109C C110U C120A A136G | 1.47
U20G G33U A78G A140G | 0.89
A64U A107U U109C U112C | 1.31

Variant | self-cleavage
A42G U62C U100C U108C | 0.66
A6C U45C U115A A142G | 1.56
A43U U62C U100C U115C | 0
C16U G74A A77G | 0.93
G60U C71U G97A U108C | 0.02
C68U U96C A140C | 0.01
U1C U20C G114A A142G | 0.72
A79G U87A A141G | 0.09
U45A A77G U115A A121G | 2.82
U9A U134C A136U | 1.25
U29C U102C A142G | 0.88
U13C A31G G54A | 0.33
U23C A43G A57G A65G | 0
G89A G125U A142G | 0.03
C3U U12C A43G U109C A124G | 0
A24U C95U A140U | 0.23
A2G U12G U39C A67U U81A | 0
C38U G106A G125U | 1.81
U13C U73A U91C U115A A121U | 0.5
U12G A64G C111U | 0.39
